About 1,700 (3.3%) of roughly 52,000 compounds were called active. Rule as the data show it: active = survival mostly below about 52% (no sharp cut-off); inactive = mostly above about 56%. The list shows a part of the results.

This assay concerns Wild type. In words: growth inhibition of S. aureus wild type versus tarO mutant, primary screen, teichoic acid synthesis inhibitors, RN4220, OD600 (AID 463173). The conditions noted are these: S. aureus RN4220 wild type/DeltatarO growth, OD600, 18 h, active compounds read low, screened at 18.75 µg/mL (by protocol).
For the compound `CCC(Sc1nnc(-c2ccc(OC)cc2)c(-c2ccc(OC)cc2)n1)C(=O)Nc1cccc(OC)c1` (configuration not stated), the survival was inactive: 74%.

Take `Cc1cc(C)cc(NC(=O)c2cccc(N3CCCS3(=O)=O)c2)c1`: the survival was inactive: 70%. On to `COc1ccccc1NC(=O)c1sc2nc(-c3cc4ccccc4oc3=O)[nH]c(=O)c2c1C`, for which the survival was inactive: 116%. For `O=C(CSc1n[nH]c(-c2ccccc2)n1)c1cccs1`, the survival was inactive: 115%. On to `COc1ccc(C(=O)N/C(=C\c2cn(S(=O)(=O)N(C)C)c3ccccc23)C(=O)NCCCn2ccnc2)cc1`, for which the survival is inactive: 93%.

In the case of `O=C(CSc1nnc(-c2ccccc2F)o1)N1CCc2ccccc21`, the survival was inactive: 86%. Turning to `O=C(Cc1ccc(Cl)cc1)NCC(c1cccs1)S(=O)(=O)c1ccc(Cl)cc1` (configuration not stated), the survival was inactive: 58%.

With `Cc1cccc(C(=O)Nc2nnc(SCc3cc(=O)n4cccc(C)c4n3)s2)c1`, the survival is inactive: 71%. With `CN(Cc1ccccc1)C(=O)C1CCN(Cc2cc3ccccc3n2Cc2ccccc2)CC1`, the survival was inactive: 71%. Regarding `Cc1cccc(NC(=O)c2c(NC(=O)c3ccco3)sc3c2CCC(C(C)(C)C)C3)c1` (configuration not stated), the survival was inactive: 82%.

In the case of `CCOC(=O)c1c(C)[nH]c(CCC(=O)Nc2cc(C)cc(C)c2)c1C`, the survival is inactive: 126%. In the case of `O=C(Cn1nc(C(F)(F)F)c2c1CCCC2)Nc1ccc(Cl)cc1`, the survival is inactive: 69%.

For the compound `Cc1ccc(-n2c3c(cc(-c4nc(-c5ccc(Cl)cc5)cs4)c2=O)C(=O)CC(C)(C)C3)cc1`, the survival is inactive: 80%.

Regarding `COc1cc(OC)cc(C(=O)Nc2ccc(S(=O)(=O)Nc3onc(C)c3C)cc2)c1`, the survival was inactive: 86%. In the case of `COc1cccc(CNC(=O)CN2C(=O)CCn3nc(-c4cn(C)c5ccccc45)cc32)c1OC`, the survival is inactive: 67%. `Cc1ccc(C(=O)N2C(C)CCCC2C)c(Cl)c1` (configuration not stated): the survival is inactive: 118%. For the compound `CCOC(=O)c1cccc(NC(=O)c2cc(-c3ccc(Cl)s3)nc3ccccc23)c1`, the survival is inactive: 112%.

For `CN=CC1=C(O)C(C(=O)OC)C(C)(C)CC1=O` (configuration not stated), the survival is inactive: 105%. With `CCc1ccc(N2C(=O)CSC23C(=O)N(Cc2cccc(F)c2)c2ccccc23)cc1` (configuration not stated), the survival is inactive: 146%. With `COc1ccc(NC(=O)Cn2ncc3c([nH]c4ccccc43)c2=O)cc1Cl`, the survival was inactive: 73%.

In the case of `CCN(CC)CCCNC(=O)c1cn(C)c2ccc(S(=O)(=O)N3CCOCC3)cc2c1=O`, the survival was inactive: 84%.

`Cc1ccc(NC(=O)CSc2nc(C)cc(C)c2C(=O)Nc2cccc(C)c2)cc1`: the survival was inactive: 79%. On to `O=C(NCCc1ccccc1)c1ccc(CSc2nc3ccncc3n2Cc2ccccc2)cc1`, for which the survival was inactive: 85%. Turning to `COc1ccccc1OCc1nnc(SCC(=O)N(C)C)o1`, the survival was inactive: 99%. As to `Cn1c(CNc2nc(-c3ccccc3)cs2)nnc1SCC(=O)c1ccccc1`, the survival is inactive: 107%. In the case of `COc1ccc(Br)cc1CNC(=O)CN1C(=O)CSc2ccc(S(=O)(=O)N3CCOCC3)cc21`, the survival is inactive: 70%. For `Cc1ccc(NC(=O)c2cc3c(=O)n(Cc4cccnc4)ccc3nc2C)cc1F`, the survival was inactive: 79%. As for `Cc1cc(C(F)F)n2nc(C(=O)Nc3ccc(C)c(C)c3)nc2n1`, the survival is inactive: 102%. As for `CCC(C(=O)NCc1ccccc1)n1ncn2c(cc3occc32)c1=O` (configuration not stated), the survival was inactive: 90%. `CCC(=O)N1CCN(c2ccc(NC(=O)c3ccccc3)cc2)CC1`: the survival was inactive: 99%.

For the compound `CCOC(=O)c1ccc2ncc(C(=O)OCC)c(Nc3ccc(C)c(Br)c3)c2c1`, the survival is inactive: 72%. The result for `Cc1cccc(C(=O)Nc2cccc(C(=O)OCc3cc(=O)n4ccsc4n3)c2)c1` reads inactive: 87%. Turning to `CN(C)c1ccc(/C=C(/NC(=O)c2ccccc2)C(N)=O)cc1`, the survival was inactive: 106%. As for `COc1ccc(OC(C)C(=O)NCc2nc(-c3ccc(Cl)cc3)no2)cc1` (configuration not stated), the survival is inactive: 83%. As for `COc1ccccc1NC(=O)C1=C(C)Nc2ncnn2C1c1ccccn1` (configuration not stated), the survival is inactive: 69%. The figure for `COc1ccc(N2CC(C(=O)NC3=NCCS3)CC2=O)cc1` (configuration not stated) is inactive: 102%; for `O=c1c2oc3ccccc3c2n(Cc2cccc(C(F)(F)F)c2)c(=O)n1Cc1ccc2c(c1)OCO2` it is inactive: 119%. For the compound `CC(C)Sc1ncc(Cl)c(C(=O)Nc2ccc(S(=O)(=O)N3CCCCC3C)cc2)n1` (configuration not stated), the survival is inactive: 114%. Regarding `COc1ccc(OC)c(CNC(=O)c2cccc(NC(=O)N3CCSc4ncccc43)c2)c1`, the survival was inactive: 68%. The result for `CCOc1ccccc1N(C)C(=O)NCc1noc2ccccc12` reads inactive: 110%; that for `CCn1cc(C(=O)NC(C)c2ccccc2)c(=O)c2cc(S(=O)(=O)N3CCc4ccccc4C3)ccc21` (configuration not stated), inactive: 88%.

Take `O=C(N/N=C/c1ccc(O)cc1)Nc1cccc2nsnc12`: the survival was inactive: 123%.

As for `Cc1ccc(-n2nc(C)c3nc(CCC(=O)Nc4ccc(F)cc4)c(=O)n(C)c32)cc1`, the survival is inactive: 80%. Take `CCOc1ccccc1NS(=O)(=O)c1ccc2oc(=O)c3ncn(C)c3c2c1`: the survival is inactive: 90%.

As to `Cc1ccc(NC(=O)Cn2cc(S(=O)(=O)N3CCCC3)c(S(=O)(=O)N3CCCC3)c2)c(C)c1`, the survival was inactive: 71%. The result for `O=C(O)CN1C(=O)c2ccc(Oc3ccc4c(c3)C(=O)N(CC(=O)O)C4=O)cc2C1=O` reads inactive: 109%. For `c1cc(N2CCOCC2)ccc1Nc1nc2nonc2nc1Nc1ccc(N2CCOCC2)cc1`, the survival is inactive: 114%. As to `COc1ccc(C(=O)c2cn(CC(=O)Nc3ccc4c(c3)OCO4)c3ccc(OC)cc3c2=O)cc1`, the survival is inactive: 80%. For the compound `O=C(c1cccnc1Nc1cccc(Cl)c1)N1CCCCC1`, the survival was inactive: 117%. The figure for `O=C(NCCc1ccc(Cl)cc1)c1cccn1-c1nnc(N2CCCC2)s1` is inactive: 130%; for `C=CCNC(=O)CN1C(=O)COc2ccccc21` it is inactive: 105%. The result for `CCc1ccccc1NC(=O)c1cc(S(=O)(=O)NC2CCCC2)ccc1F` reads inactive: 85%. With `COc1ccc(C(=O)N2CCC(C(=O)Nc3ccccc3Cl)CC2)cc1`, the survival is inactive: 92%. `Cc1cccc(NC(=O)CSc2nc3c([nH]c4ccccc43)c(=O)n2-c2ccc(F)cc2)c1C`: the survival was inactive: 22%. Regarding `COc1ccc(-n2nc(C(=O)N3CCN(c4cccc(C)c4)C(C)C3)c3c4ccccc4n(C)c3c2=O)cc1` (configuration not stated), the survival is inactive: 87%. Take `CCCn1ccc2c(OCC(=O)Nc3ccc(F)cc3F)cccc2c1=O`: the survival is inactive: 81%. In the case of `Cc1cccc(OCC(=O)Nc2ccc3c(c2)N(C)C(=O)c2ccccc2S3)c1`, the survival was inactive: 69%. As for `Cc1ccc(C(=O)N/C(=C\c2cn(S(=O)(=O)N(C)C)c3ccccc23)C(=O)NCCCn2ccnc2)cc1`, the survival is inactive: 73%. On to `COc1ccc(NC(=O)c2ccco2)cc1NC(=O)COc1ccccc1Cl`, for which the survival is inactive: 111%. In the case of `O=C(Cc1cccs1)NC1CCCCCC1`, the survival is inactive: 114%.

Turning to `COc1ccc(CN2CCCN(CC(=O)Nc3ccc4c(c3)OCCO4)S2(=O)=O)cc1`, the survival was inactive: 81%. Consider `CCOC(=O)Cn1c(=O)sc2ccccc21`, for which the survival is inactive: 116%. As for `COc1ccccc1CNC(=O)CCCn1c(=O)c2ccccc2n(Cc2ccc(C)cc2)c1=O`, the survival is inactive: 129%. The figure for `COc1ccc(C2CC(=O)N(CC(=O)Nc3cccc(C)c3C)c3ccccc3S2)cc1OC` (configuration not stated) is inactive: 91%; for `Cc1ccc(C(=O)N2CCC(C(N)=O)CC2)cc1NC(=O)c1nsc2ccccc12` it is inactive: 72%; for `CCOC(=O)C1CCN(C(=O)c2nn(-c3ccc(OC)cc3)c(=O)c3c2c2ccccc2n3C)CC1` it is inactive: 73%. The result for `Cc1ccc(Sc2ccc(N3CCCC(C(=O)Nc4ccc(F)cc4F)C3)nn2)cc1` (configuration not stated) reads inactive: 51%; that for `Cc1nc(C)c(C(=O)N/N=C/c2ccc(O)cc2O)cc1C(=O)N/N=C/c1ccc(O)cc1O`, inactive: 108%.

With `COc1ccc(N(CC(=O)NCCc2ccc(Cl)cc2)S(=O)(=O)c2c(C)nn(C)c2C)cc1`, the survival is inactive: 71%. As for `Cc1ccc(CSc2nc3cccnc3n2Cc2ccc(C(=O)NCCc3cccs3)cc2)cc1`, the survival was inactive: 131%. `Cc1nn(C)c2c1c(C(F)(F)F)cc(=O)n2CC(=O)N1CCC(C)CC1`: the survival is inactive: 68%. On to `CC1CCN(S(=O)(=O)c2cc(C(=O)N3CCN(c4ccccc4F)CC3)n(C)c2)CC1`, for which the survival is inactive: 65%. For `Cc1ccc(-c2noc(-c3nnn(CC(=O)Nc4cc(Cl)ccc4C)c3N)n2)cc1`, the survival is inactive: 59%.

In the case of `CCCC(=O)N1CCCC(c2nc(-c3ccc(OC)cc3)no2)C1` (configuration not stated), the survival was inactive: 106%.

Turning to `CCC1CN(C(=O)C2CCN(S(=O)(=O)c3c(C)noc3/C=C/c3ccccc3F)CC2)c2cc(C)ccc2O1` (configuration not stated), the survival was inactive: 84%. The result for `COc1ccc(NC(=O)c2oc3ccccc3c2NC(=O)Cc2cccs2)c(OC)c1` reads inactive: 115%; that for `COc1ccc(CNC(=O)C(C)n2c(=O)cc(C)c3c(C)nn(-c4ccccc4)c32)cc1` (configuration not stated), inactive: 70%. `COCCN1CCN(Cc2ccc(C(=O)NC(C)C)cc2)C(=O)C1=O`: the survival is inactive: 91%. The result for `CCCCn1c(SCC(=O)NCc2ccc(C)cc2)nc2c(sc3ccccc32)c1=O` reads inactive: 69%; that for `CCN1CCN(c2cc(C)c3cc(NC(=O)c4ccc(OC)c(OC)c4)ccc3n2)CC1`, inactive: 65%; that for `Cc1nc2c(c(C)nn2-c2ccccc2)c(C)c1CCC(=O)NCc1ccccc1`, inactive: 94%.

Consider `CCc1cccc(NC(=O)C2CCN(S(=O)(=O)c3cccc(-c4noc(C)n4)c3)CC2)c1`, for which the survival was inactive: 80%. The figure for `Cc1ccc(-c2n[nH]c(=S)c3ccccc23)cc1S(=O)(=O)N1CCN(C)CC1` is inactive: 106%; for `COc1ccc(C2c3cccn3CCN2S(=O)(=O)c2ccc([N+](=O)[O-])cc2)cc1` (configuration not stated) it is inactive: 68%; for `COc1ccc(C)cc1Nc1nc(N)c2cc(OC)c(OC)cc2n1` it is inactive: 75%. Regarding `CC(=O)c1cccc(NC(=O)c2nc(-c3ccccc3)n(-c3ccccc3C)n2)c1`, the survival is inactive: 83%. Regarding `CCN1CCN(Cc2c(O)ccc3cc(-c4ccc(OC)cc4)c(=O)oc23)CC1`, the survival was inactive: 97%.
